Reference: PubChem BioAssay AID485297 (National Center for Advancing Translational Sciences (NCATS), 2010)
The whole screen tested about 320,000 compounds, of which about 9,100 (2.8%) were called active. This list was built around the results that the source calls inconclusive (neither active nor inactive); the mix of calls is not that of the screen. Calls follow the shape of the dose curve; as a rule, active = well fitted activation curve with a large enough effect; inconclusive = small, poorly fitted or top-dose-only effect; inactive = no such curve, though single readings can be large or run the other way. Potencies of inconclusive entries are left out as doubtful fits.

Test: qHTS Assay for Rab9 Promoter Activators; also: nearly all actives have a fitted effect of over 60% in size
Conditions: Huh7 Rab9 promoter-luciferase reporter, luminescence, 24 h; series mostly up to 9.22 µM
In short: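 Huh7 cells stably carrying Rab9 promoter–luciferase reporter, plated 1500 cells/well, compound added after 2 h and incubated 24 h at 37 °C; luciferase luminescence then read after 10 min with detection reagent.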
Potency is read from the fitted curve at half-maximal effect; tags tell the direction and shape of the fitted curve.

SMILES	Potency
O=C(c1ccc(CS(=O)c2ccccc2Cl)o1)N1CCN(c2ccccn2)CC1 (stereo unspecified)	inactive
CCN1CCN(c2ccc(NC(=O)c3ccco3)cc2)CC1	inconclusive [activator, partial curve]
COC(=O)C(Cc1ccc(OC(=O)c2ccc(C(F)(F)F)cc2)cc1)N1Cc2ccccc2C1=O (stereo unspecified)	inconclusive [activator, partial curve]
COC(=O)Cc1c(C)c2ccc(OCC(C)=O)c(C)c2oc1=O	inconclusive [activator, partial curve]
Brc1ccc(/C=N/Nc2nc3ccccc3o2)cc1	active: 1.12 µM
Cc1cccc(Nc2nc(-c3ccc4c(c3)OCCO4)cs2)c1	active: 0.891 µM
O=C(Nc1ccc(Cl)cc1)c1ccc(OCC2CCCO2)cc1 (stereo unspecified)	inconclusive [activator, single point]
Nc1ccc(N=Nc2ccc(N)cc2)cc1	inconclusive [activator, full curve]
Cc1[nH]c2ccccc2c1/C=N/Nc1ccccc1[N+](=O)[O-]	inconclusive [activator, single point]
CC(C)=C1SC(N2CCN(Cc3ccccc3)CC2)=NC1=O	inactive
O=C(CNc1ccc(Cl)cc1)c1ccc(Br)cc1	inconclusive [activator, single point]
O=C(Nc1ccc(Cc2ccncc2)cc1)C1CC1	inactive
Cc1cc(Cl)n2ncc(-c3ccccc3)c2n1	inconclusive [activator, single point]
COc1cc(N=c2c([N+](=O)[O-])nn(-c3ccc4c(c3)OCCO4)n2O)cc(OC)c1	inconclusive [activator, full curve, poor fit]
Cc1ccccc1/C(N)=N/OC(=O)c1ccc(F)cc1	inconclusive [activator, partial curve]
Cc1cc(C(=O)Nc2nnc(-c3ccccc3)s2)no1	inconclusive [activator, single point]
Cc1cc(C(=O)CSc2n[nH]c(N)n2)c(C)n1-c1ccc(F)cc1	inconclusive [activator, partial curve]
CC(C)(C)C(=O)N1N=C(c2ccc(NS(C)(=O)=O)cc2)CC1c1cccs1 (stereo unspecified)	inactive
COc1ccc2cnn(CCOc3ccccc3)c(=O)c2c1OC	active: 0.562 µM
O=C(CC12CC3CC(C1)CC(CC(=O)NC1=NCCS1)(C3)C2)NC1=NCCS1	inactive
CN(C)C(CNC(=O)C1CCN(C(=O)/C=C/c2ccccc2)CC1)c1ccccc1 (stereo unspecified)	inconclusive [activator, partial curve]
Cc1ccc2nc(NCCc3ccc(Cl)cc3)c3nncn3c2c1	inactive
CCc1noc(C)c1C(=O)Nc1nc(-c2ccccc2)cs1	inconclusive [activator, single point]
COc1cccc(OC)c1C(=O)NC(=S)Nc1ccc2c(c1)OCCO2	inactive
Cc1ccc(CC(=O)O/N=C(\N)c2ccccn2)cc1	inconclusive [activator, partial curve]
O=C(N/N=C/c1ccc(Cl)cc1)C1CC12CCC2 (stereo unspecified)	inconclusive [activator, single point]

SMILES	Potency
Cc1cc(=O)oc2cc(NC(=O)Cc3ccccc3)ccc12	inconclusive [activator, partial curve]
O=C(COC(=O)c1cccc([N+](=O)[O-])c1)c1ccc(OCc2ccccc2)cc1	inconclusive [activator, single point]
N#Cc1c(/N=C/C=C/c2ccccc2)sc2c1CCCC2	inconclusive [activator, partial curve]
CN1CCc2c(sc(/N=C/c3cc(Cl)ccc3O)c2C#N)C1	inconclusive [activator, single point]
CCn1cnc2cc(NCc3ccccc3Cl)ccc21	inconclusive [activator, single point]
COc1ccc(/C=C/C(=O)OCC(=O)NC2CCCC2)cc1	inconclusive [activator, single point]
Cc1ccc(CNC(=O)C2CC(c3cccc([N+](=O)[O-])c3)=NO2)o1 (stereo unspecified)	inconclusive [activator, partial curve, poor fit]
O=C(NCCOC(=O)c1ccc(Cl)c(S(=O)(=O)N2CCCCC2)c1)c1ccncc1	inactive
c1coc(-c2nnc(-c3ccco3)nn2)c1	inconclusive [activator, partial curve, poor fit]
CCOC(=O)C1=C(C)NC(C)=C(C(=O)OCC)C1C(=O)OCC(=O)N1CCc2ccccc21	inactive
CCc1nc(NC(C)(C)C)c2cnn(-c3ccccc3)c2n1	inconclusive [activator, partial curve]
O=C(Nc1ccc(F)cc1)c1ccc(CSc2ccc(Cl)cc2)o1	inactive
CC/C(=N\NC(=O)c1cc(C2CC2)[nH]n1)c1ccccc1	inconclusive [activator, partial curve]
CC(=O)c1cccc(OCc2cc(C(=O)N3CCSCC3)no2)c1	active: 3.16 µM
C/C(CCc1ccc2c(c1)OCO2)=N\N=C(/N)SC1CC(=O)N(c2ccccc2F)C1=O (stereo unspecified)	inactive
CCOC(=O)c1ccc2[nH]c3ccccc3c2c1	inconclusive [activator, single point]
COc1ccc(/C=N/Nc2nc(C(=O)O)cs2)cc1	inconclusive [activator, full curve]
COc1cc(/C=C2/C(=N)N3OC(C)=CC3=NC2=O)ccc1OC(=O)c1ccco1	inactive
COc1ccc(C)cc1N(C(=O)CNC(=O)c1ccco1)C(C(=O)NC1CCCC1)c1cccnc1 (stereo unspecified)	inconclusive [activator, full curve, poor fit]
Cc1ccc2occ(CN3CCN(Cc4ccccc4)CC3)c(=O)c2c1	inconclusive [activator, partial curve]
CCCc1c(NC(=O)Nc2ccc(F)cc2)cnn1-c1ccccc1	inconclusive [activator, single point]
CCOC(=O)c1ccc(NC(=O)Nc2ccccn2)cc1	active: 1.26 µM
CCCCC(=O)Nc1ccc(C(=O)NCCc2ccccc2)cc1	inconclusive [activator, single point]
N/C(=N\OC(=O)/C=C/c1ccccc1Cl)c1ccccn1	active: 0.282 µM
CC(C)(C)C(=O)CC(=O)Nc1ccc(Cl)c(N)c1	inconclusive [activator, partial curve]
CCn1cnc2cc(NC(=O)c3ccc(C)cc3)ccc21	active: 3.98 µM

SMILES	Potency
O=C(NCCOc1ccccc1Cl)c1ncn[nH]1	inconclusive [activator, single point]
Clc1ccc(/C=N/NC(=Nc2ccccc2)c2ccccn2)c(Cl)c1	inconclusive [activator, single point]
Cc1cccc(-c2cc(N)n(-c3ccccc3)n2)c1	active: 0.794 µM
COc1cccc(NC(=O)CNC(=O)c2cccs2)c1	inconclusive [activator, single point]
COc1cc(-c2nc(CN3CCN(CC(C)C)C(=O)[C@@H]3C)c(C)o2)ccc1F	inactive
CC(=O)Nc1cccc(OCCCNC(=O)c2cccc3ccccc23)c1	inactive
CCOC(=O)C(C)Sc1ncnc2c1nnn2-c1ccc(F)cc1 (stereo unspecified)	inconclusive [activator, single point]
Cc1nc(/N=C\c2ccc(N(C)C)cc2)sc1C	inactive
O=[N+]([O-])c1cccc(/C=N/N2CCN(Cc3ccccc3)CC2)c1	inconclusive [activator, single point]
COc1ccccc1C(=O)Nc1ccc(NC(=O)c2ccco2)c(C)c1	inconclusive [activator, partial curve]
Cc1nc(NC(=S)Nc2ccccc2)sc1C	inconclusive [activator, single point]
CCOc1ccc(CCNC(=O)COC(=O)CSc2ccc(C)cc2)cc1OCC	inactive
Cn1ccnc1SCC(=O)c1cc2ccccc2o1	inconclusive [activator, single point]
CC(C)CSc1nsc(N)n1	inconclusive [activator, single point]
O=C(O)CSc1nc2ccc(Cl)cc2[nH]1	inconclusive [activator, partial curve]
CCn1c(C)c(C)c2cc(C(=O)NC3CCCCCC3)ccc21	inconclusive [activator, single point]
Cc1cc(C)nc(Nc2n[nH]c(-c3ccc(N)cc3)n2)n1	active: 3.55 µM
CCn1c(SCC(=O)N2CCOCC2)nnc1C(C)NC(=O)c1ccccc1 (stereo unspecified)	inactive
Cc1ccc(NC(=O)CN2C(=S)NC(C)(C)CC2C)cc1Cl (stereo unspecified)	inconclusive [activator, single point]
O=C1N(c2ccccc2)CCN1c1ccccc1	active: 1.12 µM
Cc1ccc(Nc2nc(N)nc(CC#N)n2)cc1	inconclusive [activator, partial curve]
Cc1ccc(Nc2nc(-c3ccc(F)cc3)cs2)nc1	active: 3.98 µM
CCOc1ccccc1CNC(=O)c1cc2oc3ccccc3c2n1CC	inactive
Cc1cccc(OCCCC(=O)Nc2ccc(N3CCCCC3)cc2)c1C	inactive
